Experimental findings from ChEMBL document CHEMBL5308541, “MAIP: An Open-Source Tool to Enrich High-Throughput Screening Output and Identify Novel, Druglike Molecules with Antimalarial Activity” (ACS Med Chem Lett, 2023) are described below.

Out of some 150,000 compounds screened, about 540 (0.36%) showed an effect of 50% or more. The list shows a part of the results.

In the assay the test system is Plasmodium falciparum. Kind of assay: Primary screen in NF54 nanoGlo assay, in single point, at 2uM, 72h; a lower Z score goes with more inhibition. The assay is classed as functional, Erythrocyte. Conditions: timepoint 72 hour.
In the case of `O=C(Nc1cccc(CN2CCCC2)c1)[C@H]1CCCN(C2CCOCC2)C1`, the “% Inhibition” value was determined as 0% and the Z score came out at 0.1.
The matching figures for `Cc1cc(C)c2nc(CN3CCCC[C@@H]3CCN3CCN(C)CC3)cc(O)c2c1`: -2% and 0.37.
The like results for `C[C@@H](CO)n1ncc2cc(N(C)C)ccc2c1=O` were, in that order, -9% and 1.78.
The like results for `O=C(c1cnn2c1OCCC2)N1CCC(N2CCC(Oc3ccc(C(F)(F)F)cn3)CC2)CC1` were, in that order, -4% and 0.56.
Turning to `Oc1ccc(-c2c(-c3ccccc3)ncn2CCCc2nnn[nH]2)cc1Cl`, the “% Inhibition” value is -4% and the Z score was determined as 0.7.
As to `CC(C)(C)OC(=O)N1CCCC1C1COCCC1NC1CCN(C(=O)c2ccco2)CC1` (stereo unspecified), the “% Inhibition” value was -11% and the Z score was determined as 1.86.
The matching figures for `O=C(NC1CNCC1O)c1cccc(-c2cccc(OC(F)(F)F)c2)c1` (stereo unspecified): -5% and 0.88.
The like results for `COc1ccc(NC(=O)CN(C)C(=O)c2c[nH]c3ccccc23)cc1Cl` were, in that order, 2% and -0.39.
The matching figures for `CCc1ccc(Oc2cc(N3CCC(C(=O)N4CCN(C5CCCCC5)CC4)CC3)ncn2)cc1`: 4% and -0.57.
For the compound `CNC(=O)COc1ccc(CN2CCN(C)c3ccc(Cl)cc32)cc1OC`, the “% Inhibition” value is -12% and the Z score was 2.35.
The matching figures for `CC(C)(NCCCNS(C)(=O)=O)c1cccc(C(F)(F)F)c1`: -9% and 1.97.
In the case of `CC(C)c1oncc1NC(=O)Cc1c[nH]c2ncccc12`, the “% Inhibition” value was 0% and the Z score was determined as 0.02.
On to `O=C(NC[C@H]1CCCO1)c1cccc(CNc2ncnc3[nH]ccc23)c1`, for which the “% Inhibition” value was -4% and the Z score amounted to 0.87.
The matching figures for `CN(Cc1cccc2[nH]ccc12)c1nc(=O)c2cn[nH]c2[nH]1`: -1% and 0.19.
The like results for `Fc1cc2[nH]cc(CCNc3nc(C4CCOCC4)ns3)c2cc1Cl` were, in that order, -16% and 2.36.
The like results for `O=C(N[C@@H]1COC2(CCNCC2)C1)c1cccc(-c2cccc(F)c2)c1` were, in that order, -8% and 1.69.
With `c1ccc(C2CCN(c3nccc(NC4CCCCC4)n3)CC2)cc1`, the “% Inhibition” value is listed as -7% and the Z score stood at 1.11.
In the case of `Cc1nc(CN2CCC(CNc3ncnc4[nH]ncc34)CC2)oc1C`, the “% Inhibition” value is -12% and the Z score is 2.32.
The like results for `COc1cccc2[nH]cc(CC(=O)NC3CCC(Oc4cnccn4)CC3)c12` (stereo unspecified) were, in that order, -3% and 0.47.
The like results for `O=C(c1[nH]nc2c1COc1ccccc1-2)N1CCC2(CC1)C[C@@H](CCOc1ccncc1)CCO2` were, in that order, -6% and 1.04.
The matching figures for `C[C@@H](c1ccccc1Cl)N1CCN(c2ncnc3[nH]ccc23)CC1`: 4% and -0.74.
As for `CCN(Cc1cnc(-c2ccccc2C)nc1)CC1CCN(C2CCN(C)CC2)CC1`, the “% Inhibition” value is on record as -7% and the Z score is recorded as 1.18.
On to `O=C(c1cccc2c(=O)c3ccccc3[nH]c12)N1CCCC2(CCNCC2)CC1`, for which the “% Inhibition” value is -1% and the Z score was found to be 0.25.
Turning to `Cc1cc(Br)oc1C(=O)N[C@H]1CCN(CC(F)(F)F)C1=O`, the “% Inhibition” value is recorded as -11% and the Z score came out at 1.66.
With `CCCC[C@@H](CN)NS(=O)(=O)N1CCCCCC1`, the “% Inhibition” value is reported as -10% and the Z score worked out at 1.67.
On to `C#CCOc1cc(F)ccc1NS(=O)(=O)c1ccc2c(c1)C(=O)NCC2`, for which the “% Inhibition” value is -3% and the Z score was determined as 0.61.
The matching figures for `Cc1cc(CC(C)NC(=O)N2CCCCCC2c2ccc(C)o2)n[nH]1` (stereo unspecified): 8% and -1.68.
Take `COc1ccccc1N1CCC(Nc2ncccc2-c2nc(C)no2)CC1`: the “% Inhibition” value is -3% and the Z score turned out to be 0.46.
As to `O=C(C[C@H](O)c1cc(Cl)cc(Cl)c1)N1CCN(CCN2CCCOCC2)CC1`, the “% Inhibition” value was -3% and the Z score is recorded as 0.52.
`CN1CCN(CCNc2ccccc2Cl)CC1`: the “% Inhibition” value was -5% and the Z score is 0.81.
The matching figures for `COC[C@H](NC(=O)c1nc2ccccc2s1)c1ccc(C)o1`: -8% and 1.66.
Consider `CCN1CCC(N(C)C(=O)C2CC3CCCCC3N2C(=O)c2sc3ccccc3c2Cl)CC1` (stereo unspecified), for which the “% Inhibition” value was determined as 7% and the Z score is on record as -1.3.
The like results for `Fc1ccc(CNC2CCN(Cc3ccco3)CC2)cc1Cl` were, in that order, 7% and -1.5.
With `O=C(c1ccc2[nH]ccc2c1)N1CCC[C@H](Cc2noc(-c3cnccn3)n2)C1`, the “% Inhibition” value is reported as -10% and the Z score stood at 2.07.
The matching figures for `CC[C@@H](CNc1nc(C)nc2sccc12)N(C)C`: -8% and 1.73.
As to `Cn1ccnc1[C@@H](O)C1CCN(C(=O)c2cccc(-c3cncnc3)c2)CC1`, the “% Inhibition” value was -4% and the Z score is reported as 0.62.
Turning to `CCc1ccc(-c2nc(Nc3ccccc3OC)sc2C)cc1`, the “% Inhibition” value is given as -17% and the Z score is listed as 3.75.
The matching figures for `CC(C)c1nc(N2CCN(C(=O)[C@@H]3CCCN3C)CC2)c2cc[nH]c2n1`: -4% and 0.9.
The like results for `CCOc1cccc(N2CCN(C(=O)c3cc(-c4ccc(F)cc4)[nH]n3)CC2)n1` were, in that order, 39% and -8.48.
The matching figures for `CN1CCCCC1CN1CCN(CC(O)CN2CCOCC2)CC1` (stereo unspecified): -3% and 0.59.
On to `COCCn1ccc(Nc2ncnc3ccc(Br)cc23)n1`, for which the “% Inhibition” value is given as -6% and the Z score was found to be 0.88.
`OC1CCN(Cc2ccccc2CNc2ncnc3ccccc23)CC1`: the “% Inhibition” value stood at 18% and the Z score is given as -3.58.
Consider `COc1cc2nc(N3CC(O)C(Cc4cc(C)no4)C3)nc(N)c2cc1OC` (stereo unspecified), for which the “% Inhibition” value was -5% and the Z score was 0.89.
Take `CN1C(=O)COc2ccc(C(=O)N3CCC[C@@]4(CCOC4)C3)cc21`: the “% Inhibition” value is on record as -9% and the Z score is 1.51.
The like results for `Cn1ncc2c(N)nc(N3CCC(CCCn4ccnc4)CC3)nc21` were, in that order, -4% and 0.76.
The matching figures for `CC1(C)CC(NCc2ccc(Cl)cc2-n2cncn2)CC(C)(C)N1`: 1% and -0.12.
The like results for `c1cc(Nc2ccnc(C3CC3)n2)cc(N2CCCCCC2)c1` were, in that order, -1% and 0.19.
Turning to `c1csc(CN2CCC(NCc3cnc(NC[C@H]4CCCO4)nc3)CC2)c1`, the “% Inhibition” value was -4% and the Z score is recorded as 0.79.
The like results for `COc1ccc(CCN2CCC(CN(C)C[C@H]3CCOC(C)(C)C3)CC2)cc1` were, in that order, -4% and 0.72.
The like results for `CN(C)c1ccc(NCc2c[nH]nc2-c2ccccc2)nc1` were, in that order, -8% and 1.33.
Consider `Cc1ccncc1S(=O)(=O)N(c1ccccc1)C1CCN(C)CC1`, for which the “% Inhibition” value was -9% and the Z score is listed as 1.39.
Turning to `c1ccc(-c2ncn(Cc3ncn[nH]3)c2-c2ccc(-c3cncnc3)cc2)cc1`, the “% Inhibition” value was -4% and the Z score was determined as 0.73.
The like results for `CS(=O)(=O)c1ccc2ncnc(NCc3ccnc(OCC(F)F)c3)c2c1` were, in that order, -6% and 1.04.
As for `c1ccc(-c2nc3c(c(NCc4ccc5cc[nH]c5c4)n2)CCNC3)nc1`, the “% Inhibition” value is -7% and the Z score is reported as 1.07.
Take `CN(C)S(=O)(=O)CC1COCC1NC(=O)c1ccc2[nH]ccc2c1` (stereo unspecified): the “% Inhibition” value amounted to 5% and the Z score is on record as -1.1.
In the case of `CNc1cc(-c2noc(C3CCOC(C)C3)n2)c2ccccc2n1` (stereo unspecified), the “% Inhibition” value is -13% and the Z score stood at 2.38.
The like results for `Cc1csc(=O)n1Cc1nnc(C(C)C)o1` were, in that order, -8% and 1.5.
For `O=C(Cc1cn2c(n1)CCCC2)Nc1ccc2sc(C(=O)O)cc2c1`, the “% Inhibition” value was 3% and the Z score was -0.51.
The like results for `O=C1NC(=O)N2CCN(S(=O)(=O)c3cc4c(cc3Br)OCCO4)CC12` (stereo unspecified) were, in that order, -4% and 0.72.
As to `Cc1cc(NCc2cccc3cc[nH]c23)ccc1OCCN1CCCC1`, the “% Inhibition” value is recorded as -9% and the Z score is reported as 1.54.
In the case of `C[C@@H](CCN1CCN(C2CC2)CC1)N1CCN(C2CC2)CC1`, the “% Inhibition” value is recorded as -2% and the Z score is 0.42.
The matching figures for `c1ccc(CO[C@@H]2CCC[C@H]2Nc2ccc3cc[nH]c3n2)cc1`: 2% and -0.29.
The like results for `c1nc(NCc2ccc3c(c2)OCCCO3)cc(N2CCCC2)n1` were, in that order, -12% and 2.06.
Consider `C[C@@H](c1cccc(-c2cc(F)c3nc(N)sc3c2)c1)N1CCCC1`, for which the “% Inhibition” value is given as -6% and the Z score is given as 0.93.
On to `Cc1cc2c(NCC[C@H]3CCCCN3C3CCCC3)ncnc2s1`, for which the “% Inhibition” value came out at 6% and the Z score was -1.26.
Consider `c1ccc(-n2cc(CN3CCN(C4CCOCC4)CC3)c(-c3ccncc3)n2)cc1`, for which the “% Inhibition” value was determined as 1% and the Z score is -0.21.
Turning to `CCC(C)C(NC(=O)OC(C)(C)C)C(=O)N(C)CCOc1ccccc1` (stereo unspecified), the “% Inhibition” value is listed as 6% and the Z score is reported as -1.39.
In the case of `FC(F)(F)c1cc(N2CCC(Nc3cc(C4CCC4)ncn3)CC2)ncn1`, the “% Inhibition” value turned out to be 4% and the Z score is listed as -0.85.
In the case of `Cc1ncccc1Oc1ncnc(NCCN2CCC[C@H](CO)C2)c1C`, the “% Inhibition” value was determined as 2% and the Z score is -0.26.
`CC(C)CN(Cc1ccc(C#N)cc1)C(=O)CCc1cnn(C)n1`: the “% Inhibition” value was 2% and the Z score is recorded as -0.37.
The like results for `COc1ccc2oc([C@H](C)NC(=O)c3cc4ccccc4c(=O)n3C)c(C)c2c1` were, in that order, -4% and 0.57.
On to `CC(C)CN1CCC(N[C@H]2CCN(CCc3ccccc3)C2)CC1`, for which the “% Inhibition” value was 8% and the Z score is on record as -1.65.
As to `CCN(CCN1CCCCCC1)C(=O)c1cccc(-c2cccc(O)n2)c1`, the “% Inhibition” value is 0% and the Z score was -0.05.
As for `CCN(Cc1ccc2c(c1)OCO2)C(=O)c1c(C)oc2ccc(OC)cc12`, the “% Inhibition” value was -5% and the Z score turned out to be 1.12.
Regarding `Nc1nc(NCc2ccc(NC(=O)c3cccnc3)cc2)nc2ccccc12`, the “% Inhibition” value was -3% and the Z score is recorded as 0.58.
As to `Cn1c(CN2CCN(C3CCCC3)CC2)nc2c1c(=O)[nH]c(=O)n2C`, the “% Inhibition” value is listed as -6% and the Z score was found to be 0.97.
For the compound `Cc1ccc(NCCCNCc2ccc(C)c3ncccc23)nc1`, the “% Inhibition” value worked out at 0% and the Z score is reported as -0.06.
As for `Nc1nc(NCCCn2nnc3ccccc32)cc([C@H]2C[C@H](N)C2)n1`, the “% Inhibition” value was determined as 20% and the Z score is given as -3.59.
The matching figures for `CCC(Nc1ncnc2ccccc12)[C@H]1C[C@@H](O)C1` (stereo partly specified): -4% and 0.71.
For the compound `C[C@@H](CN1CCOCC1)NCc1ccc2c[nH]nc2c1`, the “% Inhibition” value came out at 0% and the Z score is given as -0.06.
The like results for `c1ccc(-c2nc3c(c(NCCNc4ncccn4)n2)CCC3)nc1` were, in that order, 41% and -7.15.
The matching figures for `N#Cc1ccccc1OC[C@@H](O)CNCc1ccccc1CN1CCC(O)CC1`: 7% and -1.08.
The like results for `O[C@@]1(CNc2cc(C(F)(F)F)nc(N3CCCC3)n2)CCCNCC1` were, in that order, -12% and 1.86.

One may read the % Inhibition as the relative decrease from the control value, in per cent.
